{"source": "PubChem BioAssay AID504832", "about": "(National Center for Advancing Translational Sciences (NCATS), 2011)", "note": "Where “and” joins values, the source holds several entries; their conditions need not be identical. Equal entries are not always repeated. Out of some 310,000 compounds screened, about 18,000 (5.8%) were called active. The shares of active, inactive and inconclusive entries below differ from those in the screen. The call rests on the fitted dose curve; in most records, active means well fitted inhibition curve with a large enough effect; inconclusive means small, poorly fitted or top-dose-only effect, or another doubt; inactive means no such curve, though single readings can be large or run the other way. No potency is given beside an inconclusive call; the fits are too rough. On the % scale 0 is the no-effect control and ±100 the full control effect; potency means the concentration at half of the fitted maximal effect; tags describe the fitted curve by direction and shape."}
{"experiment": "Primary qHTS for delayed death inhibitors of the malarial parasite plastid, 48 hour incubation", "conditions": "P. falciparum luciferase growth in erythrocytes; series mostly up to 28.7 µM; activity change, negative = inhibition: at the top concentration", "in_short": "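Read-out is firefly luciferase luminescence from an integrated reporter in P. falciparum, so falling signal marks reduced parasite growth. Infected erythrocytes were at 2% hematocrit and 0.1% parasitemia (final) in Albumax-supplemented RPMI 1640.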"}
{"smiles": "O=C(NN=C1CCCCCC1)c1cc2ccccc2cc1O", "Potency": "inconclusive [inhibitor, full curve, poor fit]"}
{"smiles": "CC(C)CCOP(=O)(c1ccc(N(C)C)cc1)C(O)c1c(Cl)cccc1Cl", "note": "(configuration not stated)", "Potency": "active: 10.4 µM"}
{"smiles": "COc1ccc(-c2ccccc2)cc1NCc1ccccc1C", "activity change, negative = inhibition": "inactive: 68%"}
{"smiles": "CCCC1=[N+](CC)CCn2c(C)ccc21", "Potency": "active: 4.65 µM"}
{"smiles": "CCN(CC)Cc1cc(Nc2ccnc3cc(Cl)ccc23)ccc1O", "Potency": "active: 6.4 nM and active: 16.5 nM and active: 4.7 nM"}
{"smiles": "O=C(NNC1=Nc2ccccc2SC1)c1ccccc1F", "Potency": "inconclusive [inhibitor, single point]"}
{"smiles": "COc1cccc(C2C(C(=O)Nc3ccccc3)=C(C)N=c3s/c(=C/c4ccc(OCC(=O)O)cc4)c(=O)n32)c1", "note": "(configuration not stated)", "Potency": "active: 7.38 µM"}
{"smiles": "Cc1ccc(NC(=O)COC(=O)c2ccc3c(c2)C(=O)N(CCc2ccccc2)C3=O)c(C)c1", "activity change, negative = inhibition": "inactive: 11.8%"}
{"smiles": "Cc1oc2c(c(=O)c1C)C(=O)CC(c1ccccc1)C2", "note": "(configuration not stated)", "Potency": "inconclusive [inhibitor, single point]"}
{"smiles": "O=C(c1ccc(S(=O)(=O)N2CCCC2)cc1)N1CCN(Cc2ccc3c(c2)OCO3)CC1", "Potency": "inconclusive [inhibitor, single point]"}
{"smiles": "CCSc1nnc(NC(=O)C2C3CCC(C3)C2C(=O)O)s1", "note": "(configuration not stated)", "activity change, negative = inhibition": "inactive: -6.33%"}
{"smiles": "Cc1ccc(NC(=O)CSc2nnc(COc3ccccc3C)o2)cc1", "Potency": "inconclusive [inhibitor, single point]"}
{"smiles": "COC(=O)c1[nH]c2cc(OC)ccc2c1NC(=O)CN1CCC(C(N)=O)(N2CCCCC2)CC1", "Potency": "inconclusive [inhibitor, partial curve, poor fit]"}
{"smiles": "CCN(CC)C(=O)CSc1ncnc2c1nnn2-c1ccc(OC)cc1", "Potency": "inconclusive [inhibitor, full curve]"}
{"smiles": "CCCN(CCC)C(=O)c1oc2ccccc2c1NC(=O)Cc1cccc(OC)c1", "Potency": "inconclusive [inhibitor, partial curve]"}
{"smiles": "Cc1ccc2nc(SCC(=O)NC3CCCc4ccccc43)[nH]c2c1", "note": "(configuration not stated)", "activity change, negative = inhibition": "inactive: -13.1%"}
{"smiles": "CCS(=O)(=O)N1Cc2ccccc2CC1C(=O)N1CCN(c2cccc(C)c2C)CC1", "note": "(configuration not stated)", "Potency": "inconclusive [inhibitor, full curve, poor fit]"}
{"smiles": "O=C(NCc1cccnc1)c1ccc(Br)o1", "activity change, negative = inhibition": "inactive: 15%"}
{"smiles": "COc1ccc(C(Nc2ccccn2)c2c(NC(=O)c3ccco3)sc(C)c2C)cc1", "note": "(configuration not stated)", "Potency": "active: 4.65 µM"}
{"smiles": "COc1ccc(C(=O)OC2CC[C@@]3(C)C4CCC5[C@]6(O)CC(O)[C@@]7(O)C(CN8CC(C)CCC8[C@@]7(C)O)[C@]6(O)C[C@@]53O[C@]24O)cc1OC", "note": "(some centres not stated)", "Potency": "inconclusive [inhibitor, partial curve]"}
{"smiles": "Cc1ccccc1CNC(=O)Nc1ccc(Cl)cc1", "activity change, negative = inhibition": "inactive: 109%"}
{"smiles": "O=C(NC(=O)c1ccc(F)cc1)Nc1nc(-c2cccs2)cc(C(F)(F)F)n1", "Potency": "inconclusive [inhibitor, single point]"}
{"smiles": "O=C(CN1CCCSc2ccccc21)N1CCN(S(=O)(=O)c2cccc(F)c2)CC1", "Potency": "inconclusive [inhibitor, single point]"}
{"smiles": "CC(=O)C1=C(O)C(=O)N(c2ccc(Br)cn2)C1c1ccc(Br)cc1", "note": "(configuration not stated)", "activity change, negative = inhibition": "inactive: 13.4%"}
{"smiles": "O=C(c1ccc(Cn2c(=S)[nH]c3ccc(N4CCOCC4)cc3c2=O)cc1)N1CCN(c2ccc(F)cc2)CC1", "Potency": "inconclusive [inhibitor, single point]"}
{"smiles": "Fc1cnc(N2CCOCC2)nc1NCc1ccccc1", "Potency": "inconclusive [inhibitor, partial curve, poor fit]"}
{"smiles": "Cc1cccc(C)c1NC(=O)N1C(C(=O)O)CSC1C(=O)O", "note": "(configuration not stated)", "Potency": "inconclusive [inhibitor, partial curve]"}
{"smiles": "Cc1onc(-c2ccccc2)c1C(=O)Nc1ccc(Cl)c(S(=O)(=O)N2CCOCC2)c1", "Potency": "inconclusive [inhibitor, single point]"}
{"smiles": "CCOc1cc(C2C(C#N)=C(N)Oc3n[nH]c(CC)c32)ccc1OCCN1CCOCC1", "note": "(configuration not stated)", "Potency": "inconclusive [inhibitor, partial curve, poor fit]"}
{"smiles": "COc1ccc(Oc2cc(C(F)(F)F)cnc2C(N)=O)cc1", "activity change, negative = inhibition": "inactive: 9.24%"}
{"smiles": "Cc1ccc(N2C(N)=NC(N)=NC23CCCC3)c(C)c1", "Potency": "inconclusive [inhibitor, partial curve, poor fit]"}
{"smiles": "O=C(Nc1ccc(C(F)(F)F)cc1)C1=NN(C2CCS(=O)(=O)C2)C(=O)CC1", "note": "(configuration not stated)", "Potency": "inconclusive [inhibitor, partial curve, poor fit]"}
{"smiles": "Cc1cc(C(F)F)n2nc(C(=O)Nc3sc4c(c3C(N)=O)CCC4)nc2n1", "Potency": "inconclusive [inhibitor, partial curve, poor fit]"}
{"smiles": "CCCc1cc(=O)oc2c3c(cc(OCC(=O)NCCCn4ccnc4)c12)OC(C)(C)CC3", "Potency": "inconclusive [inhibitor, single point]"}
{"smiles": "COc1cccc2cc(/C(C)=N/Nc3nc(-c4cc(C)ccc4C)cs3)c(=O)oc12", "Potency": "inconclusive [inhibitor, single point]"}
{"smiles": "OC(CNc1ccccc1)COc1ccc(OCC(O)CNc2ccccc2)cc1", "note": "(configuration not stated)", "Potency": "inconclusive [inhibitor, partial curve, poor fit]"}
{"smiles": "O=C1CN(C(=O)CSc2ccc(-c3ccc(F)cc3)nn2)c2ccccc2N1", "Potency": "inconclusive [inhibitor, single point]"}
{"smiles": "Cc1cc(C(=O)NNC(=O)CCCOc2ccccc2)c(C)o1", "Potency": "inconclusive [inhibitor, full curve, poor fit]"}
{"smiles": "Cc1ccc(NC(=O)C2CSC3(C)CCC(=O)N23)cc1S(=O)(=O)N1CCOCC1", "note": "(configuration not stated)", "Potency": "inconclusive [inhibitor, single point]"}
{"smiles": "O=C(O)/C=C/c1ccccc1[N+](=O)[O-]", "Potency": "inconclusive [inhibitor, full curve, poor fit]"}
{"smiles": "CC(C)(C)c1ccc(C(=O)NCC(=O)OCc2ccc([N+](=O)[O-])cc2)cc1", "activity change, negative = inhibition": "inactive: 4.48%"}
{"smiles": "COc1ccccc1NC(=O)c1ccc(NC(=O)c2cc3c(s2)CCC3)cc1", "Potency": "inconclusive [inhibitor, partial curve, poor fit]"}
{"smiles": "COc1ccc(-c2cc(CNC(=O)CCl)on2)cc1", "Potency": "active: 2.94 µM"}
{"smiles": "CCOC(=O)c1c(NC(=S)Nc2ccc(Cl)cc2)sc2c1CCN(C)C2", "Potency": "inconclusive [inhibitor, single point]"}
{"smiles": "COc1ccc(S(=O)(=O)N2CCCC2CNC(=O)c2cccc(OC)c2)cc1", "note": "(configuration not stated)", "Potency": "inconclusive [inhibitor, single point]"}
{"smiles": "Cc1cc(C)c2nc(NNC(=O)c3ccc(S(=O)(=O)N4CCc5ccccc5C4)cc3)sc2c1", "Potency": "active: 2.33 µM"}
{"smiles": "O=C1S/C(=C\\c2ccc(N3CCOCC3)o2)C(=O)N1Cc1c(F)cccc1Cl", "Potency": "inconclusive [inhibitor, full curve, poor fit]"}
{"smiles": "CN(CC(=O)Nc1ccc(F)cc1)C(=O)c1cc(-c2ccco2)nc2ccccc12", "Potency": "inconclusive [inhibitor, partial curve]"}
{"smiles": "CC1=NOC(=O)/C1=C/c1ccc2c(c1)OCO2", "Potency": "inconclusive [inhibitor, partial curve, poor fit]"}
{"smiles": "Cc1ccc(S(=O)(=O)CCC(=O)Oc2ccc3c(C)cc(=O)oc3c2)cc1", "Potency": "inconclusive [inhibitor, single point]"}
{"smiles": "CCN(CC)S(=O)(=O)c1ccc(C(=O)O)cc1", "Potency": "inactive"}
{"smiles": "CC(C)N1CCN(C(=O)c2ccc(OC3CCN(CCc4ccccc4)CC3)cc2)CC1", "Potency": "inconclusive [inhibitor, single point]"}
{"smiles": "CCN(CC)S(=O)(=O)c1ccc(/C=C/C(=O)Nc2ccc(F)cc2F)cc1", "Potency": "inconclusive [inhibitor, partial curve]"}
{"smiles": "C=CCN1c2ccc(Br)cc2C(=O)CS1(=O)=O", "activity change, negative = inhibition": "inactive: 30.1%"}
{"smiles": "CCOc1cc2c(C#N)c(N3CCNCC3)nc(N)c2c(N)n1", "Potency": "inconclusive [inhibitor, single point]"}
{"smiles": "CC(C)NC(=O)C12CC3CC(C1)CC(C(=O)NC(C)C)(C3)C2", "activity change, negative = inhibition": "inactive: 15% [at 5.75 µM]"}
{"smiles": "Cc1cc(C(=O)COc2ccc(F)cc2Br)c(C)n1C1CC1", "Potency": "inconclusive [inhibitor, single point]"}
{"smiles": "Cc1ccc2nc(-c3ccccc3)c(-c3ccccc3)nc2c1", "activity change, negative = inhibition": "inactive: -8.42%"}
{"smiles": "COc1ccc(Oc2ccc(/C=C/C(=O)c3ccc(O)cc3)cc2[N+](=O)[O-])cc1", "Potency": "active: 11.7 µM"}
{"smiles": "CN(Cc1ccccc1Cl)C(=O)c1cnccc1C(F)(F)F", "Potency": "inconclusive [inhibitor, partial curve, poor fit]"}
{"smiles": "COc1ccc(NC(=O)[C@@H](NC(=O)c2ccccc2F)C(C)C)cc1S(=O)(=O)N1CCOCC1", "Potency": "inconclusive [inhibitor, full curve, poor fit]"}
{"smiles": "CCOC(=O)C1(CC2CC2)CCN(Cc2ccc(OC)cc2F)CC1", "activity change, negative = inhibition": "inactive: 0%"}
{"smiles": "N#C/C(=C\\c1ccc(-c2ccc(Cl)c(C(=O)O)c2)o1)c1nc2ccccc2[nH]1", "activity change, negative = inhibition": "inactive: -1.51%"}
{"smiles": "COc1cccc2cc(-c3n[nH]c(=S)n3C)oc12", "Potency": "inconclusive [inhibitor, single point]"}
{"smiles": "O=C1NC2(CCCC2)Oc2ccccc21", "activity change, negative = inhibition": "inactive: 12.4%"}
{"smiles": "COc1ccc(OC)c(N(CC(=O)N2CCC(C)CC2)S(=O)(=O)c2ccc(OC)c(OC)c2)c1", "Potency": "inconclusive [inhibitor, full curve]"}
{"smiles": "O=c1cc(CN2CCN(C/C=C/c3ccccc3)CC2)c2cc(O)ccc2o1", "Potency": "active: 3.29 µM"}
